# Experimental data published in patent US20240009173A1, “Use of 5-HT3-Targeting Drugs for Treatment of Acute Kidney Injury” (priority 2020, published 2024).
# Columns and labels:
# [1] = tested on: AKI patients in ICU; details: slope of serum creatinine changes
# [2] = tested on: AKI patients in ICU; experiment: Logistic regression of in-ICU mortality of AKI patients (Example 2, Table 8); type: in vivo, human; details: ICU mortality of patients with AKI, negative = decreased mortality
# [3] = tested on: AKI patients in ICU; experiment: Validation in eICU database: propensity score matching on APS, chi-square test of ICU death rate (Example 1); type: in vivo, human
# [4] = after PSM, 3,848 patients in group
smiles,measurement,setting,value
CC(=O)Oc1ccccc1C(=O)O [Aspirin],effect on creatinine levels,[1],no effect
NCCCC[C@H](N[C@@H](CCc1ccccc1)C(=O)O)C(=O)N1CCC[C@H]1C(=O)O [Lisinopril],Estimate (regression coefficient),[2],decrease the ICU mortality of AKI patients
COCCc1ccc(OCC(O)CNC(C)C)cc1 (stereo not drawn) [Metoprolol],Estimate (regression coefficient),[2],decrease the ICU mortality of AKI patients
O=C(CCCN1CCC(O)(c2ccc(Cl)cc2)CC1)c1ccc(F)cc1 [Haloperidol],Estimate (regression coefficient),[2],decrease the ICU mortality of AKI patients
Cc1nccn1CC1CCc2c(c3ccccc3n2C)C1=O (stereo not drawn) [Ondansetron],Alive (patients),[3]; [4],"3,369"
same,Death (patients),[3]; [4],479
same,death rate,"[3]; after baseline APS adjustment by PSM, 3,848 patients per group",12.45%
same,time of maximum capability of decreasing creatinine level after administration,[1],2.5 to 4 h
NS(=O)(=O)c1cc(C(=O)O)c(NCc2ccco2)cc1Cl [Furosemide],Estimate (regression coefficient),[2],decrease the ICU mortality of AKI patients
